The other results are listed elsewhere or left out. The list includes weakly bound sequences.
target: T1, MBP-FoxP3dN (UniProt Q99JB6); assay: PD-seq (MBP pull-down with sequencing); conditions: 20 mM Tris-HCl pH 7.5, 100 mM NaCl, 1.5 mM MgCl2, 0.4 uM protein, 0.1 uM dsDNA library, 30 min, room temperature, amylose pull-down; high values mean tight binding; double strand, one strand shown
T1 sequence: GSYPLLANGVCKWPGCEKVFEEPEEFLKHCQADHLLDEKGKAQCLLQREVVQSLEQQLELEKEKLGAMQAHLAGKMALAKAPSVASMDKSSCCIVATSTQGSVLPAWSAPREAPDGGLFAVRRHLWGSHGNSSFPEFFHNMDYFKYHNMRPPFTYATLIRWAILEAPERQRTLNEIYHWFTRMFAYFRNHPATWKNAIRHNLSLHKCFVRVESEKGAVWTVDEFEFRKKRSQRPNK

Row | Sequence | binding signal (RPM ratio (pull-down/input))
1 | GATGATTGTTCTCCCAGCTGATGAATTAATGATCTCGAGTAAACAAATTTTCCTAATCTTTCTGTTCAAGCGCCATCTAC | 0.767
2 | GATGATTGTTCTCCCAGCTGATGAATTGAGCTATTCGAGTAAACAAATTTTCCTAATCTTTCTGTTCAAGCGCCATCTAC | 1.57
3 | GATGATTGTTCTCCCAGCTGATGAATTTTACAAGTCGAGTAAACAAATTTTCCTAATCTTTCTGTTCAAGCGCCATCTAC | 0.192
4 | GATGATTGTTCTCCCAGCTGATGAATTGTAATCTTCGAGTAAACAAATTTTCCTAATCTTTCTGTTCAAGCGCCATCTAC | 0.84
5 | GATGATTGTTCTCCCAGCTGATGAATTCCCTCGCTCGAGTAAACAAATTTTCCTAATCTTTCTGTTCAAGCGCCATCTAC | 0.236
6 | GATGATTGTTCTCCCAGCTGATGAATTTTTTGAGTCGAGTAAACAAATTTTCCTAATCTTTCTGTTCAAGCGCCATCTAC | 0.237
7 | GATGATTGTTCTCCCAGCTGATGAATTTATAGTATCGAGTAAACAAATTTTCCTAATCTTTCTGTTCAAGCGCCATCTAC | 2.27
8 | GATGATTGTTCTCCCAGCTGATGAATTGAGTTAGTCGAGTAAACAAATTTTCCTAATCTTTCTGTTCAAGCGCCATCTAC | 1.26
9 | GATGATTGTTCTCCCAGCTGATGAATTCTAATACTCGAGTAAACAAATTTTCCTAATCTTTCTGTTCAAGCGCCATCTAC | 0.43
10 | GATGATTGTTCTCCCAGCTGATGAATTGGTGCATTCGAGTAAACAAATTTTCCTAATCTTTCTGTTCAAGCGCCATCTAC | 6.97
11 | GATGATTGTTCTCCCAGCTGATGAATTTTATTTGTCGAGTAAACAAATTTTCCTAATCTTTCTGTTCAAGCGCCATCTAC | 6.21
12 | GATGATTGTTCTCCCAGCTGATGAATTGGGCTCTTCGAGTAAACAAATTTTCCTAATCTTTCTGTTCAAGCGCCATCTAC | 0.461
13 | GATGATTGTTCTCCCAGCTGATGAATTGGCAGCGTCGAGTAAACAAATTTTCCTAATCTTTCTGTTCAAGCGCCATCTAC | 0.509
14 | GATGATTGTTCTCCCAGCTGATGAATTCCGATCCTCGAGTAAACAAATTTTCCTAATCTTTCTGTTCAAGCGCCATCTAC | 0.416
15 | GATGATTGTTCTCCCAGCTGATGAATTTGTACTATCGAGTAAACAAATTTTCCTAATCTTTCTGTTCAAGCGCCATCTAC | 2.15
16 | GATGATTGTTCTCCCAGCTGATGAATTCAACTTATCGAGTAAACAAATTTTCCTAATCTTTCTGTTCAAGCGCCATCTAC | 0.561
17 | GATGATTGTTCTCCCAGCTGATGAATTTGCTGATTCGAGTAAACAAATTTTCCTAATCTTTCTGTTCAAGCGCCATCTAC | 4.61
18 | GATGATTGTTCTCCCAGCTGATGAATTTTTCAATTCGAGTAAACAAATTTTCCTAATCTTTCTGTTCAAGCGCCATCTAC | 0.281

Source: paper PMC12820563
